Source: a collection of fitness landscapes (doi:10.1126/science.1257360)
The list shows a part of the results.

B1: PhoQ; a variant is named by its letters at X, in order, P23837 (parent)
chain: MKKLLRLFFPLSLRVRFLLATAAVVLVLSLAYGMVALIGYSVSFDKTTFRLLRGESNLFYTLAKWENNKLHVELPENIDKQSPTMTLIYDENGQLLWAQRDVPWLMKMIQPDWLKSNGFHEIEADVNDTSLLLSGDHSIQQQLQEVREDDDDAEMTHSVAVNVYPATSRMPKLTIVVVDTIPVELKSSYMVWSWFIYVLSANLLLVIPLLWVAAWWSLRPIEALAKEVRELEEHNRELLNPATTRELTSLVRNLNRLLKSERERYDKYRTTLTDLTHSLKTPLXXLQXXLRSLRSEKMSVSDAEPVMLEQISRISQQIGYYLHRASMRGGTLLSRELHPVAPLLDNLTSALNKVYQRKGVNISLDISPEISFVGEQNDFVEVMGNVLDNACKYCLEFVEISARQTDEHLYIVVEDDGPGIPLSKREVIFDRGQRVDTLRPGQGVGLAVAREITEQYEGKIVAGESMLGGARMEVIFGRQHSAPKDE

Variants of: B1
Assay: enrichment ratio after two sorts for PhoP signalling (ratio (wild type AVST 3.29)); higher = more functional
Settings: with PhoP (E. coli)

Variant | enrichment ratio
DRLM | ≤ 0.25
NCPW | ≤ 0.25
AWYL | ≤ 0.25
EDIY | ≤ 0.25
MRII | ≤ 0.25
DRRN | ≤ 0.25
PNME | ≤ 0.25
MPPL | ≤ 0.25
FYTP | ≤ 0.25
ICSY | ≤ 0.25
NDST | ≤ 0.25
RMSL | ≤ 0.25
AWLF | ≤ 0.25
PMVS | ≤ 0.25
GLDS | ≤ 0.25
LINS | ≤ 0.25
IVIS | ≤ 0.25
HGMP | ≤ 0.25
YNGN | ≤ 0.25
GGAK | ≤ 0.25
AHRA | ≤ 0.25
DKTI | ≤ 0.25
RSRA | ≤ 0.25
FNLT | ≤ 0.25

Variant | enrichment ratio
KTRT | ≤ 0.25
TLYI | 0.826
PSLW | ≤ 0.25
EIHK | ≤ 0.25
TENC | 8.76
KPFN | ≤ 0.25
ANEK | ≤ 0.25
WKQE | ≤ 0.25
GRLS | ≤ 0.25
DQML | ≤ 0.25
PDKP | ≤ 0.25
SVGK | 4.33
PAVA | ≤ 0.25
DIRL | 0.731
PYHN | ≤ 0.25
LNRC | ≤ 0.25
SKDY | ≤ 0.25
DVSY | ≤ 0.25
GDWP | ≤ 0.25
PIGV | ≤ 0.25
DRAN | ≤ 0.25
MAGP | ≤ 0.25
RAAW | ≤ 0.25
FRVY | ≤ 0.25

Variant | enrichment ratio
PCHP | ≤ 0.25
KKHV | ≤ 0.25
GCLN | 11.5
LPRE | ≤ 0.25
PHGW | ≤ 0.25
RVCC | ≤ 0.25
PKQP | ≤ 0.25
RQEM | ≤ 0.25
GNKA | ≤ 0.25
EALC | ≤ 0.25
VFRT | ≤ 0.25
GHRY | ≤ 0.25
QYLI | ≤ 0.25
DVVI | ≤ 0.25
WSTM | ≤ 0.25
RKCV | ≤ 0.25
LMHG | ≤ 0.25
QKTN | ≤ 0.25
LEIM | ≤ 0.25
VDVC | 0.855
PNCC | ≤ 0.25
EFFC | ≤ 0.25
NSKC | 0.925
ADEM | ≤ 0.25

Variant | enrichment ratio
NAWW | ≤ 0.25
WGYR | ≤ 0.25
YFDV | ≤ 0.25
RWLS | ≤ 0.25
KRGK | ≤ 0.25
HAFP | ≤ 0.25
KMVK | ≤ 0.25
SILV | 2.22
EGLL | 1.68
NHCY | ≤ 0.25
APSW | ≤ 0.25
QLKN | ≤ 0.25
DRWC | ≤ 0.25
IREK | ≤ 0.25
EDIH | ≤ 0.25
NGLL | 3.87
HPQN | ≤ 0.25
MITV | 17.2
HTCW | ≤ 0.25
NATY | ≤ 0.25
LWRN | ≤ 0.25
PRFF | ≤ 0.25
CTYM | ≤ 0.25
YDCE | ≤ 0.25

Variant | enrichment ratio
RHGL | ≤ 0.25
KRNK | ≤ 0.25
STNI | 0.519
QFPV | ≤ 0.25
ERTE | ≤ 0.25
SCWW | ≤ 0.25
IPHS | ≤ 0.25
EDRM | ≤ 0.25
KRFN | ≤ 0.25
PPAD | ≤ 0.25
QRPL | ≤ 0.25
IHEY | ≤ 0.25
PQSW | ≤ 0.25
NTAN | ≤ 0.25
NKHP | ≤ 0.25
QQNI | 8.84
NILF | ≤ 0.25
RKVT | ≤ 0.25
ANTM | 44
WCSF | ≤ 0.25
VISH | ≤ 0.25
CRLL | ≤ 0.25
NSFR | ≤ 0.25
VQHE | ≤ 0.25

Variant | enrichment ratio
DNWH | ≤ 0.25
ACRK | ≤ 0.25
EPVK | ≤ 0.25
VNMM | 1.16
KSHM | ≤ 0.25
PLGK | ≤ 0.25
MQKC | ≤ 0.25
MIYW | ≤ 0.25
DSSC | ≤ 0.25
VYWP | ≤ 0.25
RLGA | ≤ 0.25
YGRQ | ≤ 0.25
TAFI | 0.754
LPGN | ≤ 0.25
THGW | ≤ 0.25
LLGE | ≤ 0.25
DPSS | ≤ 0.25
TRDH | ≤ 0.25
AHQI | ≤ 0.25
WNTD | ≤ 0.25
MGEI | ≤ 0.25
GRGC | ≤ 0.25
RQIL | ≤ 0.25
VKHT | ≤ 0.25

Variant | enrichment ratio
RLRT | ≤ 0.25
GYQR | ≤ 0.25
YAYY | ≤ 0.25
VFNE | ≤ 0.25
NCYD | ≤ 0.25
DDPQ | ≤ 0.25
NDNC | ≤ 0.25
RHTT | ≤ 0.25
SHYN | ≤ 0.25
SHPW | ≤ 0.25
EKFF | ≤ 0.25
RCNA | ≤ 0.25
VHYF | ≤ 0.25
DDFG | ≤ 0.25
VPHN | ≤ 0.25
YLPL | ≤ 0.25
MNRN | ≤ 0.25
EHTE | ≤ 0.25
HEVT | ≤ 0.25
VRHR | ≤ 0.25
PIDR | ≤ 0.25
VGKW | ≤ 0.25
HWIY | ≤ 0.25
NTVW | ≤ 0.25

Variant | enrichment ratio
MANA | ≤ 0.25
RQIT | ≤ 0.25
TMHK | ≤ 0.25
NSYM | ≤ 0.25
TNRP | ≤ 0.25
IHIC | ≤ 0.25
YQPG | ≤ 0.25
VANN | ≤ 0.25
GVLT | ≤ 0.25
DVEY | ≤ 0.25
VKWR | ≤ 0.25
LLPC | ≤ 0.25
RVGL | ≤ 0.25
PGPS | ≤ 0.25
WMVF | ≤ 0.25
VVLN | ≤ 0.25
FVCV | ≤ 0.25
NIIP | ≤ 0.25
FNGE | ≤ 0.25
DWIM | ≤ 0.25
RTNT | ≤ 0.25
KDYH | ≤ 0.25
INTQ | ≤ 0.25
DALS | ≤ 0.25

Variant | enrichment ratio
TVYA | ≤ 0.25
NWVR | ≤ 0.25
SIPV | 7.67
IRPV | ≤ 0.25
FCWQ | ≤ 0.25
FGKD | ≤ 0.25
WPVL | ≤ 0.25
MSQA | ≤ 0.25
YPLF | ≤ 0.25
SQFH | ≤ 0.25
FDNS | ≤ 0.25
KIIG | ≤ 0.25
TENS | 8.17
HQTT | ≤ 0.25
ITCV | ≤ 0.25
IMRE | ≤ 0.25
LYND | ≤ 0.25
QHNR | ≤ 0.25
YLTE | ≤ 0.25
WQGP | ≤ 0.25
LTAR | ≤ 0.25
KCFF | ≤ 0.25
RLID | ≤ 0.25
SEEG | 2.48

Variant | enrichment ratio
KEQD | ≤ 0.25
KGFW | ≤ 0.25
QCWN | 8.13
ELQC | ≤ 0.25
TCAA | 3.57
SRCE | ≤ 0.25
CSNI | ≤ 0.25
SMSL | 5.83
GFKP | ≤ 0.25
FWYL | ≤ 0.25
HNYP | ≤ 0.25
KCRR | ≤ 0.25
FTVD | ≤ 0.25
HSIN | ≤ 0.25
INRC | ≤ 0.25
AYVH | ≤ 0.25
KKLM | ≤ 0.25
NTFT | ≤ 0.25
HYPI | ≤ 0.25
RYSM | ≤ 0.25
TKKY | ≤ 0.25
MYDS | ≤ 0.25
EYQL | ≤ 0.25
KQLR | 0.67

Variant | enrichment ratio
PYHK | ≤ 0.25
ECVF | ≤ 0.25
YDSF | ≤ 0.25
WVTL | ≤ 0.25
SDRN | ≤ 0.25
NFHA | ≤ 0.25
YFHC | ≤ 0.25
HSCY | ≤ 0.25
RRHW | ≤ 0.25
MPDV | ≤ 0.25
HPRC | ≤ 0.25
PSMH | ≤ 0.25
SSSE | 9.78
GIYL | 1.11
QCDP | ≤ 0.25
RWQR | ≤ 0.25
VSGM | ≤ 0.25
RILY | ≤ 0.25
MTMP | ≤ 0.25
IDAS | ≤ 0.25
MHNL | ≤ 0.25
TYWN | ≤ 0.25
FNMK | ≤ 0.25
MMQT | ≤ 0.25

Variant | enrichment ratio
TLDM | ≤ 0.25
IDPH | ≤ 0.25
NAKR | ≤ 0.25
DVPW | ≤ 0.25
DGFT | ≤ 0.25
YNES | ≤ 0.25
KVGH | ≤ 0.25
IMIQ | ≤ 0.25
HEAL | ≤ 0.25
MGRN | ≤ 0.25
EDHF | ≤ 0.25
MIYH | 7.94
TYRW | ≤ 0.25
SERE | ≤ 0.25
PKPP | ≤ 0.25
HNYT | ≤ 0.25
TWWI | ≤ 0.25
SEPW | ≤ 0.25
RYTP | ≤ 0.25
SRYN | ≤ 0.25
YRFC | ≤ 0.25
DSNC | ≤ 0.25
PHDD | ≤ 0.25
ALLH | 4.8

Variant | enrichment ratio
GEMA | ≤ 0.25
AVTY | 5.84
CIRF | ≤ 0.25
HWGG | ≤ 0.25
MVSI | ≤ 0.25
WQKL | ≤ 0.25
TDKP | ≤ 0.25
PGPQ | ≤ 0.25
IHAS | ≤ 0.25
ELSF | ≤ 0.25
MLTP | ≤ 0.25
LTQK | ≤ 0.25
KISH | ≤ 0.25
VAPD | ≤ 0.25
FGRR | ≤ 0.25
GDES | ≤ 0.25
FANT | ≤ 0.25
GARC | ≤ 0.25
